The record followed here is the RNAGym collection of RNA variant scans (doi:10.1073/pnas.2313332121).

B1: TPR 5TU (parent)
chain: GGAUCUUCUCGAUCUAACAAAAAAGACAAAUCUGCCACAAAGCUUGAGAGCAUCUUCGGAUGCAGAGGCGGCAGCCUUCGGUGGCGCGAUAGCGCCAACGUUCUCAACUAUGACACGCAAAACGCGUGCUCCGUUGAAUGGAGUUUAUCAUG

Variants at the floor of the assay are shown more often than the library holds them.

Variants of B1 are the subject of this series. The series is described as follows: polymerase ribozyme fitness, log enrichment relative to wild type (log ratio); higher = more active; in vitro selection for triplet polymerase activity. Put shortly: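 Mutant libraries for each subunit of a heterodimeric triplet polymerase ribozyme were made by PCR and then transcribed. Each library underwent one round of in vitro selection in triplicate: annealing with a biotinylated primer, the partner subunit and triplets, frozen incubation at −7 °C, gel excision of extended constructs, streptavidin-bead capture and RT-PCR. Input and output libraries were Illumina-sequenced, and only genotypes with ≥10 input reads and ≥1 read per output were kept. Fitness is the logarithm, base 2, of genotype enrichment over wild-type enrichment, computed from inverse-variance-weighted replicate averages.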
U6A U13A A40C C85A C93G G94C C123U: the “polymerase ribozyme fitness (log ratio)” value is no more than -4.2.

Take U6A G70U U78A C87U: the “polymerase ribozyme fitness (log ratio)” value was no more than -4.2. For the variant C5U A12C C85A G92C C99G C105U, the “polymerase ribozyme fitness (log ratio)” value was no more than -4.2. With C5U A24C A30U G34A A49C C95G A119C C123U, the “polymerase ribozyme fitness (log ratio)” value is no more than -4.2. As for U6A C96A C129G C132A U148C, the figure is no more than -4.2; as for U6G A17U C18G C51A G74A G83A A97G G124U U144C, no more than -4.2; as for C5U A39U C51U U56G A66G C87A, no more than -4.2. For U6C U13G G42U G46A G58A G59A U61A U82G G83A C116A G133C, the “polymerase ribozyme fitness (log ratio)” value is no more than -4.2. Take U6A C75A G83A C114A: the “polymerase ribozyme fitness (log ratio)” value is no more than -4.2. The same measure for U6C A12G C43U A52G A73C A91U G141C: no more than -4.2. The same measure for U6A A137C U148A: no more than -4.2. Consider U6G A16U C18U G67C G88C, for which the “polymerase ribozyme fitness (log ratio)” value was no more than -4.2.

With C5U C18U C76G C105U U148A, the “polymerase ribozyme fitness (log ratio)” value was no more than -4.2.

Consider C5G U55A G70C C85A C96U U151G, for which the “polymerase ribozyme fitness (log ratio)” value is no more than -4.2. For U6A C75G C93U A107G G133U, the “polymerase ribozyme fitness (log ratio)” value is no more than -4.2. Consider C5U C93G, for which the “polymerase ribozyme fitness (log ratio)” value is -3.16.

As for C5U U13A A17C C27G A28U A52C C85U A113C U127A U144G, the “polymerase ribozyme fitness (log ratio)” value is no more than -4.2.

Regarding C5U A64U C93U A138G, the “polymerase ribozyme fitness (log ratio)” value is no more than -4.2. As for U6C C57U G83U G84U A121U, the figure is -3.18; as for U6A A12C A22C C36A G48A G50C A91G C96U C99G G117C C149U, no more than -4.2; as for U6C A40U A47C G92A A107G C116G, no more than -4.2. The same measure for U6A A12G A17C G25C U55G A89G: -3.61. In the case of U6C U53A G71U C76A G88C G143C, the “polymerase ribozyme fitness (log ratio)” value was no more than -4.2. Take C5U U45A U56A G80C U102G A119U: the “polymerase ribozyme fitness (log ratio)” value is no more than -4.2. Regarding U6A U55G U139A, the “polymerase ribozyme fitness (log ratio)” value is no more than -4.2. U6C C87U C93U U111G A115G C132G G141C: the “polymerase ribozyme fitness (log ratio)” value is no more than -4.2. For U6G A73U G81C A98C C99U U144C, the “polymerase ribozyme fitness (log ratio)” value was -3.62. As for C5U U56A C57A C85G, the figure is -0.724; as for U6A U15C A23U G50C G59A A142C, no more than -4.2. As for U6C A37C A41C A91U A142C, the figure is no more than -4.2; as for U6G A16G A29U C54U G86A U102G, no more than -4.2. The same measure for U6C G58C G84C U134G: no more than -4.2; for U6C G42U U77G C87U A122U: no more than -4.2. C5U C14G C93U G143C U148C: the “polymerase ribozyme fitness (log ratio)” value was no more than -4.2. As to C5U C18U A30C C35A C79A A91U A97C C99A, the “polymerase ribozyme fitness (log ratio)” value is no more than -4.2. Turning to U6A A17U A66U, the “polymerase ribozyme fitness (log ratio)” value was no more than -4.2. On to U6G A12C C18U G25C C38U A52C U53A A64G C69G C96G C118A C132A, for which the “polymerase ribozyme fitness (log ratio)” value was no more than -4.2. As for C5U A12G C32U A39U G84C G92A G117C G140C, the figure is no more than -4.2; as for U6A C27G A41U C54U G84A C103U, no more than -4.2; as for U6A A20G U56A G88U U102A C103G C132A U146G, no more than -4.2. As for C5G U15G C35G A98U A106U, the “polymerase ribozyme fitness (log ratio)” value is no more than -4.2. For U6A C93G, the “polymerase ribozyme fitness (log ratio)” value is -3.92. With U6A G86U G94A A98G, the “polymerase ribozyme fitness (log ratio)” value was no more than -4.2. Consider U6C G70A C76G C87A G88A C116A, for which the “polymerase ribozyme fitness (log ratio)” value was no more than -4.2. As for U6G A23U A40U G42A U77C G83U G140A, the figure is no more than -4.2; as for U6A A16G C108G C114A, no more than -4.2; as for C5G G100A C116U, no more than -4.2. As to U6C G86C U104G, the “polymerase ribozyme fitness (log ratio)” value is no more than -4.2. Regarding U6A G86U, the “polymerase ribozyme fitness (log ratio)” value is -1.41.

For the variant C5U C8G A52U C87U U101G U127C, the “polymerase ribozyme fitness (log ratio)” value was no more than -4.2. U6C U31C A52U G58A C95G U145A: the “polymerase ribozyme fitness (log ratio)” value is -2.9.

As for U6C C8A G67A G117A U130C C132G, the “polymerase ribozyme fitness (log ratio)” value is no more than -4.2. With U6G A49U A73U C87U, the “polymerase ribozyme fitness (log ratio)” value is no more than -4.2.

As for U6G A20C A28U C38U C43U G70U G86U C96U G128A A142C, the “polymerase ribozyme fitness (log ratio)” value was no more than -4.2. The same measure for C5U A16C G46C C85A A138C G152U: no more than -4.2; for U6C A29U A41C G42U G59C C85U G100U A107G G124A: no more than -4.2. As for U6C C85G, the figure is -2.95; as for U6A C14G G34A C87U C105U U145G, -4.05.

Consider U6C C103G U135G, for which the “polymerase ribozyme fitness (log ratio)” value is no more than -4.2. As to U6A A39G U61C G83C C85U C103A, the “polymerase ribozyme fitness (log ratio)” value was no more than -4.2. The same measure for C5U C87A G100C C131G: no more than -4.2; for C5G U53A U56A G68C G94A C118U U148A A150C: no more than -4.2.

Take U6C A26C C36G G59C C85U A91C C125U C132U G143U: the “polymerase ribozyme fitness (log ratio)” value is no more than -4.2. As for U6G A47C C87A U148G, the figure is no more than -4.2; as for U6A C14A A40U G84U C95U A115C U139C G141U, no more than -4.2.

Turning to U6C A16U A24C A40G G50A C87G G100U A120C U135G G136U, the “polymerase ribozyme fitness (log ratio)” value was no more than -4.2.

Consider U6G A16U A17G C36A C63A U101A G128C, for which the “polymerase ribozyme fitness (log ratio)” value was no more than -4.2. In the case of C5U A29G U45A G50A G86A A110G A119U, the “polymerase ribozyme fitness (log ratio)” value was no more than -4.2. Turning to U6A A21C A41G A66C C75U C87U C95A U145G, the “polymerase ribozyme fitness (log ratio)” value was no more than -4.2. C5U A22C G83C C93U U101G C116A: the “polymerase ribozyme fitness (log ratio)” value was -2.06.

U6C C35A U55A G86A C125A G133A A150C: the “polymerase ribozyme fitness (log ratio)” value is no more than -4.2. Consider U6A A30G G46A A47G A60G A66G G86U C125U, for which the “polymerase ribozyme fitness (log ratio)” value is no more than -4.2. As for U6A C10G A23U C32G A39U G48C G92U U146A, the figure is no more than -4.2; as for U6G A30G A40C C57G C75A C95U G136A, no more than -4.2. As for U6G A21C U33G U44G C57G C99U U104G C105U U135G U151G, the figure is no more than -4.2. As for U6A A40U C57G G59A C76G A98G, the figure is no more than -4.2; as for C5U A41C U53A U55A U56A G94U A122G, no more than -4.2; as for U6C U44A C87A U134A A137C A142U C149A, no more than -4.2. U6A A12G A28U U31C C36U C76G C95U: the “polymerase ribozyme fitness (log ratio)” value was no more than -4.2. In the case of U6C U56G A64C G143U, the “polymerase ribozyme fitness (log ratio)” value is no more than -4.2. As to U6A A28C G48A A64C C69U U109G A138C, the “polymerase ribozyme fitness (log ratio)” value is no more than -4.2. The same measure for U6A C10A A41C U56A G62U G84A G133U: no more than -4.2; for C5G U90G C93A C116G A142C: no more than -4.2.
